These results are taken from the supplement of paper PMC4604168 (melanoma cell lines).

This is one part of the list. Most values come without repeats; read them as rough.
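Further: cell number obtained by counting DAPI-stained nuclei in high-throughput microscope images with image analysis software, screen run in 1,536-well plates.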

For the assay, the system named is A2058. Nature of the assay: cell count relative to DMSO control; melanoma cells; higher = more viable cells. Conditions: library dose: low library concentration; 72 h.
`CCN(CC)CCNC(=O)c1c(C)[nH]c(/C=C2\C(=O)Nc3ccc(F)cc32)c1C` [sunitinib] + Clc1ccc(Nc2nnc(Cc3ccncc3)c3ccccc23)cc1 [vatalanib] (first compound 0.4 µM, partner dose 2 µM): the cell count came out at 100%.

Turning to `COc1cc([C@@H]2c3cc4c(cc3[C@@H](O[C@@H]3O[C@@H]5CO[C@@H](C)O[C@H]5[C@H](O)[C@H]3O)[C@H]3COC(=O)[C@H]23)OCO4)cc(OC)c1O` [etoposide] + Cn1c(Nc2ccc(C(F)(F)F)cc2)nc2cc(Oc3ccnc(-c4ncc(C(F)(F)F)[nH]4)c3)ccc21 [CHIR265] (first compound 0.02 µM, partner dose 0.08 µM), the cell count came out at 87.9%.

Take `CCN(CC)CCNC(=O)c1c(C)[nH]c(/C=C2\C(=O)Nc3ccc(F)cc32)c1C` [sunitinib] + O=C(O)[C@@H]1[O][Sb](=[O])([O][Sb]2(=[O])[O][C@H]([C@H](O)CO)[C@H](O)[C@H](C(=O)O)[O]2)[O][C@H]([C@H](O)CO)[C@@H]1O [stibogluconate] (first compound 0.4 µM, partner dose 2 µM): the cell count is 92.2%.

`COc1cc([C@@H]2c3cc4c(cc3[C@@H](O[C@@H]3O[C@@H]5CO[C@@H](C)O[C@H]5[C@H](O)[C@H]3O)[C@H]3COC(=O)[C@H]23)OCO4)cc(OC)c1O` [etoposide] + Cc1nc(Nc2ncc(C(=O)Nc3c(C)cccc3Cl)s2)cc(N2CCN(CCO)CC2)n1 [dasatanib] (first compound 0.02 µM, partner dose 0.004 µM) yielded a cell count of 78.1%.

For `COc1cc([C@@H]2c3cc4c(cc3[C@@H](O[C@@H]3O[C@@H]5CO[C@@H](C)O[C@H]5[C@H](O)[C@H]3O)[C@H]3COC(=O)[C@H]23)OCO4)cc(OC)c1O` [etoposide] + O=c1[nH]nc(Sc2ncc([N+](=O)[O-])s2)n1-c1ccc2c(c1)OCCO2 [BI78D3] (first compound 0.02 µM, partner dose 0.2 µM), the cell count is 86.6%.

On to `Cn1cnc2c(F)c(Nc3ccc(Br)cc3Cl)c(C(=O)NOCCO)cc21` [selumetinib] + Nc1nc(F)nc2c1ncn2[C@@H]1O[C@H](CO)[C@@H](O)[C@@H]1O [fludarabine] (first compound 0.015 µM, partner dose 0.2 µM), for which the cell count was determined as 101%.

Molecule `Cn1cnc2c(F)c(Nc3ccc(Br)cc3Cl)c(C(=O)NOCCO)cc21` [selumetinib] + Clc1ccc(Nc2nnc(Cc3ccncc3)c3ccccc23)cc1 [vatalanib] (first compound 0.015 µM, partner dose 2 µM) showed a cell count of 89.9%.

As to `CCN(CC)CCNC(=O)c1c(C)[nH]c(/C=C2\C(=O)Nc3ccc(F)cc32)c1C` [sunitinib] + O=C(O)c1ccc2c(c1)nc(Nc1cccc(Cl)c1)c1ccncc12 [CX4945] (first compound 0.4 µM, partner dose 0.4 µM), the cell count turned out to be 104%.

Turning to `C[C@]1(O)C[C@@H](c2nc(-c3ccc4ccc(-c5ccccc5)nc4c3)c3c(N)nccn32)C1` + NC1(c2ccc(-c3nc4ccn5c(=O)[nH]nc5c4cc3-c3ccccc3)cc2)CCC1 [MK2206] (first compound 0.4 µM, partner dose 0.4 µM), the cell count came to 93.9%.

Molecule `C[C@]1(O)C[C@@H](c2nc(-c3ccc4ccc(-c5ccccc5)nc4c3)c3c(N)nccn32)C1` + CCCS(=O)(=O)Nc1ccc(F)c(C(=O)c2c[nH]c3ncc(Cl)cc23)c1F [PLX4720] (first compound 0.4 µM, partner dose 0.08 µM) registered a cell count of 96%.

Molecule `C[C@]1(O)C[C@@H](c2nc(-c3ccc4ccc(-c5ccccc5)nc4c3)c3c(N)nccn32)C1` + C[C@]1(c2nc3c(C(N)=O)cccc3[nH]2)CCCN1 [Veliparib] (first compound 0.4 µM, partner dose 1.4 µM) displayed a cell count of 92.6%.

The molecule `COc1cc([C@@H]2c3cc4c(cc3[C@@H](O[C@@H]3O[C@@H]5CO[C@@H](C)O[C@H]5[C@H](O)[C@H]3O)[C@H]3COC(=O)[C@H]23)OCO4)cc(OC)c1O` [etoposide] + CN(c1ncccc1CNc1nc(Nc2ccc3c(c2)CC(=O)N3)ncc1C(F)(F)F)S(C)(=O)=O [PF562271] (first compound 0.02 µM, partner dose 0.08 µM) displayed a cell count of 83%.
